{"source": "the BET-seq Pho4 binding data (Le et al. 2018)", "note": "The list shows a part of the results. The energies were worked out here from pooled read counts, against the library average; single values are noisy.", "data": [{"target": "T1, Pho4 (S. cerevisiae) (UniProt P07270)", "T1 sequence": "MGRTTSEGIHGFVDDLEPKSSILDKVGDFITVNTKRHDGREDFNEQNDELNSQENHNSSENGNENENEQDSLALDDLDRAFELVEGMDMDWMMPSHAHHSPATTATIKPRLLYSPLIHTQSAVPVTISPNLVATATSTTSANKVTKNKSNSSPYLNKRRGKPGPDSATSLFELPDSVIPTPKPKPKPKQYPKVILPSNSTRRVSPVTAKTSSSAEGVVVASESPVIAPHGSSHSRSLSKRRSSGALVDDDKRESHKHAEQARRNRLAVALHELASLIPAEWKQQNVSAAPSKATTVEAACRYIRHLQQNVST", "test": "relative binding free energy (BET-seq); higher = weaker binding", "details": "reference: library average", "units": {"relative binding free energy": "kcal/mol"}, "values": [{"sequence": "TGGGTCACGTGATGGA", "relative binding free energy": 0.32}, {"sequence": "GTCTACACGTGTGGAG", "relative binding free energy": 0.21}, {"sequence": "GCTATCACGTGAGGGA", "relative binding free energy": 0.39}, {"sequence": "GGTCGCACGTGGGCAG", "relative binding free energy": -0.25}, {"sequence": "GTGGGCACGTGTGTAT", "relative binding free energy": 0.01}, {"sequence": "GTTAGCACGTGTCATG", "relative binding free energy": -0.06}, {"sequence": "TTTTTCACGTGCGCTT", "relative binding free energy": 0.24}, {"sequence": "TCGCGCACGTGGTTGG", "relative binding free energy": -0.14}, {"sequence": "GGGGTCACGTGGAGCT", "relative binding free energy": 0.09}, {"sequence": "TGGTCCACGTGAATTG", "relative binding free energy": 0.28}, {"sequence": "AGACGCACGTGGGTTT", "relative binding free energy": -0.21}, {"sequence": "GGTTGCACGTGACGGG", "relative binding free energy": 0.19}, {"sequence": "TCGCACACGTGGTGGT", "relative binding free energy": -0.01}, {"sequence": "GATATCACGTGTATAG", "relative binding free energy": 0.28}, {"sequence": "TTTTTCACGTGTGGTG", "relative binding free energy": 0.3}, {"sequence": "CTTTACACGTGTGTAG", "relative binding free energy": -0.07}, {"sequence": "TAGTTCACGTGTGAGC", "relative binding free energy": 0.33}, {"sequence": "CTTTTCACGTGCATTT", "relative binding free energy": 0.21}, {"sequence": "CGTGTCACGTGTGAAT", "relative binding free energy": 0.08}, {"sequence": "GTTTACACGTGGGACG", "relative binding free energy": 0.14}, {"sequence": "TGAATCACGTGCGGGT", "relative binding free energy": 0.19}, {"sequence": "CGGATCACGTGTGATT", "relative binding free energy": 0.33}, {"sequence": "TGGCGCACGTGTTTAT", "relative binding free energy": -0.09}, {"sequence": "GGCTACACGTGAAGTG", "relative binding free energy": 0.39}, {"sequence": "GGACACACGTGGGTTG", "relative binding free energy": 0.01}, {"sequence": "TTCAGCACGTGGGTAT", "relative binding free energy": -0.18}, {"sequence": "TGTTTCACGTGGGCAG", "relative binding free energy": 0.16}, {"sequence": "ATCATCACGTGTGTTG", "relative binding free energy": 0.1}, {"sequence": "AACATCACGTGGGTGT", "relative binding free energy": 0.04}, {"sequence": "TTGTCCACGTGGACGG", "relative binding free energy": 0}, {"sequence": "CGTGGCACGTGTGGGT", "relative binding free energy": -0.12}, {"sequence": "GGTTGCACGTGTAAGC", "relative binding free energy": 0.12}, {"sequence": "TGGCGCACGTGTTGTG", "relative binding free energy": -0.2}, {"sequence": "GTAAGCACGTGCAGGG", "relative binding free energy": -0.12}, {"sequence": "TTGTTCACGTGAGCAG", "relative binding free energy": 0.52}, {"sequence": "GTTGCCACGTGTATGG", "relative binding free energy": 0.07}, {"sequence": "ATTAGCACGTGTTGGG", "relative binding free energy": -0.02}, {"sequence": "TTCGTCACGTGAGTGT", "relative binding free energy": 0.21}, {"sequence": "TTGGGCACGTGGAATG", "relative binding free energy": 0}, {"sequence": "TTTAGCACGTGCTGGA", "relative binding free energy": 0.04}, {"sequence": "ATTTGCACGTGGTCAG", "relative binding free energy": -0.03}, {"sequence": "TTAGACACGTGTGGGG", "relative binding free energy": 0.09}, {"sequence": "GATTACACGTGAGTGT", "relative binding free energy": 0.24}, {"sequence": "TATGGCACGTGTGGCC", "relative binding free energy": -0.02}, {"sequence": "TTATACACGTGTATCG", "relative binding free energy": 0.07}, {"sequence": "CGGAGCACGTGTCGGG", "relative binding free energy": -0.07}, {"sequence": "AGTTACACGTGAAATG", "relative binding free energy": 0.29}, {"sequence": "GATAACACGTGGGGGA", "relative binding free energy": -0.09}, {"sequence": "CATTGCACGTGATGTT", "relative binding free energy": 0.05}, {"sequence": "AGTCTCACGTGTATTG", "relative binding free energy": 0.1}, {"sequence": "TGGTACACGTGCATGG", "relative binding free energy": 0.06}, {"sequence": "TGGGGCACGTGGCATT", "relative binding free energy": 0.06}, {"sequence": "TCGTGCACGTGTTTTC", "relative binding free energy": -0.01}, {"sequence": "CGGTGCACGTGATTAT", "relative binding free energy": 0.1}, {"sequence": "TCGGCCACGTGTTATG", "relative binding free energy": 0.1}, {"sequence": "TTCGGCACGTGATGGT", "relative binding free energy": 0.11}, {"sequence": "ATGAGCACGTGTTGAG", "relative binding free energy": -0.03}, {"sequence": "AAGGTCACGTGGTTTG", "relative binding free energy": 0.19}, {"sequence": "ACAATCACGTGGTTTG", "relative binding free energy": 0.07}, {"sequence": "ATATTCACGTGCTGAT", "relative binding free energy": 0.32}, {"sequence": "GTCTGCACGTGTTGGA", "relative binding free energy": 0.13}, {"sequence": "TAAGTCACGTGAAGTT", "relative binding free energy": 0.26}, {"sequence": "GGGATCACGTGTACGT", "relative binding free energy": 0.09}, {"sequence": "TTTTCCACGTGGATGG", "relative binding free energy": 0.17}, {"sequence": "GTTAACACGTGACGTG", "relative binding free energy": 0.14}, {"sequence": "AGCGACACGTGGGGGC", "relative binding free energy": -0.1}, {"sequence": "TGCGACACGTGATGTA", "relative binding free energy": 0.2}, {"sequence": "TGTTGCACGTGGATCT", "relative binding free energy": 0.01}, {"sequence": "AGTTACACGTGTTTGA", "relative binding free energy": 0.18}, {"sequence": "TTTCACACGTGGTTAA", "relative binding free energy": 0.12}, {"sequence": "GGTGCCACGTGGGCTG", "relative binding free energy": -0.24}, {"sequence": "AAGTTCACGTGGAAGT", "relative binding free energy": 0.31}, {"sequence": "ATGAGCACGTGCGTGT", "relative binding free energy": -0.19}, {"sequence": "TGGAGCACGTGGGTGA", "relative binding free energy": -0.14}, {"sequence": "ATCGTCACGTGGTGGC", "relative binding free energy": 0.02}, {"sequence": "GTAATCACGTGGTTGT", "relative binding free energy": 0.22}, {"sequence": "TCGGGCACGTGGCGGT", "relative binding free energy": -0.27}, {"sequence": "GGTGTCACGTGGCGCG", "relative binding free energy": 0.1}, {"sequence": "TTTGGCACGTGGGCAA", "relative binding free energy": -0.18}, {"sequence": "CGGGACACGTGGACGT", "relative binding free energy": 0.08}, {"sequence": "CTAGTCACGTGAAGGG", "relative binding free energy": 0.27}, {"sequence": "GATCGCACGTGTATTG", "relative binding free energy": 0.15}, {"sequence": "CGGAACACGTGTGGTG", "relative binding free energy": 0.08}, {"sequence": "TAGGTCACGTGTGGAT", "relative binding free energy": 0.21}, {"sequence": "TTTGTCACGTGGCAGG", "relative binding free energy": -0.09}, {"sequence": "GAAGACACGTGGGGTG", "relative binding free energy": -0.07}, {"sequence": "AGCGTCACGTGAAAGG", "relative binding free energy": 0.25}, {"sequence": "CGTATCACGTGAGGTT", "relative binding free energy": 0.24}, {"sequence": "GTTGGCACGTGAGGAG", "relative binding free energy": 0.11}, {"sequence": "TATTCCACGTGTCTGG", "relative binding free energy": 0.27}, {"sequence": "GGATACACGTGTAGAG", "relative binding free energy": 0.07}, {"sequence": "GGGGTCACGTGTGCTG", "relative binding free energy": 0.09}, {"sequence": "TATTGCACGTGGTGGT", "relative binding free energy": -0.13}, {"sequence": "GAGTGCACGTGGGGCC", "relative binding free energy": -0.22}, {"sequence": "GCTTGCACGTGCATGG", "relative binding free energy": 0}, {"sequence": "GGGCGCACGTGTGATA", "relative binding free energy": 0}, {"sequence": "TTGCTCACGTGGGATA", "relative binding free energy": 0.15}, {"sequence": "TGAGTCACGTGCTTGG", "relative binding free energy": 0.11}, {"sequence": "GAGGGCACGTGACGTG", "relative binding free energy": 0.06}, {"sequence": "TATGGCACGTGCGTAA", "relative binding free energy": -0.08}, {"sequence": "GTTTGCACGTGAGGAA", "relative binding free energy": 0.41}, {"sequence": "TTTTCCACGTGGGGGA", "relative binding free energy": -0.06}, {"sequence": "GTGTTCACGTGTAATA", "relative binding free energy": 0.42}, {"sequence": "TGCTTCACGTGCTAGT", "relative binding free energy": 0.26}, {"sequence": "CGGTTCACGTGTGAAG", "relative binding free energy": 0.37}, {"sequence": "ACAATCACGTGGTGGG", "relative binding free energy": 0.02}, {"sequence": "AGGCGCACGTGGGAGC", "relative binding free energy": -0.08}, {"sequence": "TGTAACACGTGGGCGC", "relative binding free energy": -0.06}, {"sequence": "CAGGGCACGTGTGGCA", "relative binding free energy": -0.1}, {"sequence": "ACATTCACGTGGGTAG", "relative binding free energy": 0.14}, {"sequence": "GGGTGCACGTGTGAGA", "relative binding free energy": 0.15}, {"sequence": "TGTGTCACGTGCGGGA", "relative binding free energy": 0.07}, {"sequence": "GGTTACACGTGTAGCG", "relative binding free energy": 0.21}, {"sequence": "GTGAGCACGTGATAGT", "relative binding free energy": -0.05}, {"sequence": "GACTGCACGTGGGGAT", "relative binding free energy": 0}]}]}
